Assay results published in PubChem BioAssay AID2528 (National Center for Advancing Translational Sciences (NCATS), 2010).
The whole screen tested about 350,000 compounds, of which about 700 (0.2%) were called active. The inconclusive results got no clear call from the source; some entries with a clear call stand among them for comparison. The call rests on the fitted dose curve; in most records, active means well fitted inhibition curve with a large enough effect; inconclusive means small, poorly fitted or top-dose-only effect; inactive means flat fitted curve, though single readings scatter. No potency is given beside an inconclusive call; the fits are too rough. Some structures have more than one record in an assay (separate samples or runs), and their calls can disagree.

What follows are compounds tested against RecQ-like DNA helicase BLM (Homo sapiens) (UniProt P54132) (assay: qHTS Assay for Inhibitors of Bloom's syndrome helicase (BLM)). Settings: recombinant BLM DNA unwinding, fluorescence dequenching; series mostly up to 56.1 µM.
UniProt P54132, sequence (P54132 whole entry, looked up): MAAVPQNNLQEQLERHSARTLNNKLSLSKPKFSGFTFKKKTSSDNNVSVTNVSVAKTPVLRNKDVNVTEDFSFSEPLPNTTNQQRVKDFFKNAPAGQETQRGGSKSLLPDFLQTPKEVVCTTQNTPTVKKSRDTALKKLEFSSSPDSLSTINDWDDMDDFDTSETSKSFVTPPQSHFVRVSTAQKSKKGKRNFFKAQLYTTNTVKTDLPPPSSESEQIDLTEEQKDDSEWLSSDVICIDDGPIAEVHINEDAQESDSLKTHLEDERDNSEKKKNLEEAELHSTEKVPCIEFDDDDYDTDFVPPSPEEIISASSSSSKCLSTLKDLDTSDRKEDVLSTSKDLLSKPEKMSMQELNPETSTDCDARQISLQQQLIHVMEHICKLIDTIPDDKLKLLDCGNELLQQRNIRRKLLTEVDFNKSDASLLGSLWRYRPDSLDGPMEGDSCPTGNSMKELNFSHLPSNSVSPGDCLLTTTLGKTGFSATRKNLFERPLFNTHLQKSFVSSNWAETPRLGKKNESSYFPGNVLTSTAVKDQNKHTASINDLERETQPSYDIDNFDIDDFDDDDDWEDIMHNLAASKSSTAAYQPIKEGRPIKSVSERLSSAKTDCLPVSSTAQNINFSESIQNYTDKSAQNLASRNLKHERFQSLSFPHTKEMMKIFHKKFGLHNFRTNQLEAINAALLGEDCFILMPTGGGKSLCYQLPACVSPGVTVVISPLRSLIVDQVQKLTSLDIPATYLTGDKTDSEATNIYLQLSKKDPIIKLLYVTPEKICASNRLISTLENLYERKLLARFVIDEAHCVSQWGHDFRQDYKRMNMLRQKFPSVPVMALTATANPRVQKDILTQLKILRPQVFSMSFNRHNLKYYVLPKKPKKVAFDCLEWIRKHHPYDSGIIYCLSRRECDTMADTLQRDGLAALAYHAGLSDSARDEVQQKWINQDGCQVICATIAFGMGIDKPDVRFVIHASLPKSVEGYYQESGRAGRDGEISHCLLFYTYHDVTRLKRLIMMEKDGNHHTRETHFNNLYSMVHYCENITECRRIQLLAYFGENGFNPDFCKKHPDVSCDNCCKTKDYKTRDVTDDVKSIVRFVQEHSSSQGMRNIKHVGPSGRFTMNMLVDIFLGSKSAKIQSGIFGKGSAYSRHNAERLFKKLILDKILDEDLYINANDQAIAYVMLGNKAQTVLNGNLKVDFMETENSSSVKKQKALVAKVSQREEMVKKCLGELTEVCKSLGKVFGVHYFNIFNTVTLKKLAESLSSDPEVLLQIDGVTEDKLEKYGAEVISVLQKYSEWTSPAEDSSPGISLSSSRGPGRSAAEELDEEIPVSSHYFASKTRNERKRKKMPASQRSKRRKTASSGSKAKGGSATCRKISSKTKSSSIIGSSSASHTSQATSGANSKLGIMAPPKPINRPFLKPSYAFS
Further: nearly all actives have a fitted effect of over 35% in size.
Potency means the concentration at half of the fitted maximal effect; tags describe the fitted curve by direction and shape.

Structure (SMILES)	Potency
O=C(NNC(=O)c1cc2cc(Br)ccc2oc1=O)c1ccc(O)cc1O	inconclusive [inhibitor, single point]
CCCCn1c(SCC(=O)NCc2ccco2)nc2ccc(N3CCOCC3)cc2c1=O	inactive
O=P(O)(O)OP(=O)(O)O	inconclusive [inhibitor, single point]
Cc1ccc2c(c1)c(=O)c1ccccc1n2CCCC(=O)Nc1ccc(C)c(F)c1	inactive
O=C(CSc1nc(-c2cccc(Cl)c2)nc2cc(=O)[nH]n12)Nc1ccccc1	inconclusive [inhibitor, single point]
Cc1nc2c(C(=O)NCc3ccc4c(c3)OCO4)c[nH]n2c(=O)c1Cl	inconclusive [inhibitor, single point]
CCc1cc(C(=O)N=Nc2c(O)[nH]c3ccc([N+](=O)[O-])cc23)c2ccccc2n1	active: 17.8 µM
COc1cccc(C(=O)Nc2cccc3cccnc23)c1OC	inactive
Nc1nc(Nc2cccc(Cl)c2)nc(NCc2ccco2)c1[N+](=O)[O-]	inconclusive [inhibitor, single point]
Nc1nc(=S)c2ncn(C3OC(CO)C(O)C3O)c2[nH]1 (configuration not stated)	inconclusive [inhibitor, partial curve]
Nc1nc(N)c2c(ccc3nccc32)[nH]1	inconclusive [inhibitor, single point]
CC(C)(C)C1CCc2onc(C(=O)Nc3sc4c(c3C(N)=O)CCCC4)c2C1 (configuration not stated)	inactive
COc1ccc(-c2noc(C3CC(=O)N(c4cc(C)cc(C)c4)C3)n2)cc1 (configuration not stated)	inactive
CN(C)c1ccc(/C=C/c2ccc3c4ccccc4ccc3[n+]2-c2ccccc2)cc1	inconclusive [inhibitor, single point]
COc1ccc(C2CC(C)=C(C#N)S(=O)(=O)C2C#N)cc1 (configuration not stated)	inconclusive [inhibitor, single point]
O=S(=O)(NCCc1csc(-c2ccc(F)cc2)n1)c1ccc(Cl)cc1	inactive
CC(=O)OCCCNc1cc(Sc2ccc(Cl)cc2)c2nonc2c1[N+](=O)[O-]	inconclusive [inhibitor, partial curve]
Oc1ccc(/C=N/Nc2ccc(Cl)nn2)c(O)c1O	inconclusive [inhibitor, partial curve]
O=C(N/N=C/c1ccc(-c2ccc(S(=O)(=O)Nc3ncccn3)cc2)o1)c1cc2ccccc2cc1O	inconclusive [inhibitor, single point]
Cc1cc(NC(=O)Nc2ccc3c(ccn3C)c2)sn1	inconclusive [inhibitor, partial curve]
CCCCCCNC(=O)Nc1ccc(S(=O)(=O)Nc2ccc(CCNC[C@H](O)COc3ccc(O)cc3)cc2)cc1	inconclusive [inhibitor, single point]

Structure (SMILES)	Potency
O=C(CSc1nn(-c2ccccc2)c(=S)s1)Nc1ncccn1	inactive
Cc1cccc(NC(=O)CN2C(=O)S/C(=C\c3cccn3-c3cccc(C(=O)O)c3)C2=O)c1	inconclusive [inhibitor, single point]
Cc1ccc(NS(=O)(=O)c2ccc(N/N=C/c3ccccc3OCC(=O)O)c([N+](=O)[O-])c2)c(C)c1	active: 7.08 µM
CCN(CC)c1ccc(C(=C2C=CC(=[N+](CC)Cc3cccc(S(=O)(=O)[O-])c3)C=C2)c2ccc(N(CC)Cc3cccc(S(=O)(=O)O)c3)cc2)cc1	active: 25.1 µM
COC1=CC(=O)C(C(=O)c2ccccc2)=CC1=O	inconclusive [inhibitor, partial curve]
COC(=O)CN1C(=O)[C@@H]2[C@H](C1=O)[C@@H]1CC(C(=O)OC)=C[C@@H](C(=O)OC)C3C1=C(C(=O)C31CCCCC1)[C@@H]2C (some centres not stated)	inactive
O=C(O)/C=C/c1cn(-c2ccccc2)nc1-c1ccc(-c2ccc([N+](=O)[O-])cc2)o1	inconclusive [inhibitor, single point]
COCCOC(=O)c1[nH]c2c(c1C)C(=O)CC(c1ccco1)C2 (configuration not stated)	inconclusive [inhibitor, single point]
Cc1cc(=O)oc2cc(O[C@@H]3O[C@H](C(=O)O)[C@@H](O)[C@H](O)[C@H]3O)ccc12	inactive
N[C@@H](Cc1cc(I)c(Oc2ccc(O)c(I)c2)c(I)c1)C(=O)O	active: 25.1 µM
CC(C)=CCC1=C(OCC(=O)O)C(=O)c2ccccc2C1=O	inconclusive [inhibitor, single point]
COC(=O)N1CCCc2cc(S(=O)(=O)NCc3ccccc3)ccc21	inactive
CCCCCCCCCCCCCCCC[n+]1cccc(C(=O)N(CC)CC)c1	inconclusive [inhibitor, single point]
O=C(O)COc1ccccc1/C=N/Nc1ccc(S(=O)(=O)Nc2ccc(Cl)cc2)cc1[N+](=O)[O-]	inconclusive [inhibitor, single point]
Nc1cc2nc[nH]c2cc1N	inconclusive [inhibitor, partial curve]
O=C(N/N=C\c1cccnc1)c1cc(-c2ccc(Cl)s2)[nH]n1	inconclusive [inhibitor, single point]
Cc1cc(C)n2nc(C(=O)N/N=C/c3c4ccccc4cc4ccccc34)nc2n1	inconclusive [inhibitor, single point]
O=C1OCC2OC(O)C(O)C(O)C2OC(=O)c2cc(O)c(O)c(O)c2-c2c(O)c(O)c3oc(=O)c4c(c(O)c(O)c5oc(=O)c2c3c54)-c2c1cc(O)c(O)c2O (configuration not stated)	active: 0.708 µM
O=C(CN1CCN(Cc2ccccc2)CC1)N/N=C/c1cccs1	inconclusive [inhibitor, single point]
O=C(COC(=O)CCC(=O)c1cccs1)NCc1ccco1	inconclusive [inhibitor, partial curve]
CCOc1ccc(-c2nc(SCC(=O)Nc3cc(F)ccc3F)n3[nH]c(=O)cc3n2)cc1	active: 10 µM
